Measured values published in publication PMC9911399, “Two distinct binding modes provide the RNA-binding protein RbFox with extraordinary sequence specificity”.
Residue numbers refer to the chain shown, from its start. The list shows a part of the results.

T1: RBFOX1 RRM (Homo sapiens, UniProt Q9NWB1 109-208)
T1 sequence: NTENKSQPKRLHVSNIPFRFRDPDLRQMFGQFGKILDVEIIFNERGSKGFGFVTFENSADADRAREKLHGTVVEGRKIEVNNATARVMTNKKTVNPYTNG

B1: CCAAACC (DNA:RNA)
RNA: GGGAGACCGGAAUUCAGAUUGUCCCCAAACCUUAAAUCCCGUCGUAGCCACCA
DNA 1: CAATCTGAATTCCGGTCTCCC
DNA 2: TGGTGGCTACGACGGGATT
B2: CACGGUC (DNA:RNA)
RNA: B1 RNA with C26A, A27C, A28G, A29G, C30U
DNA 1: CAATCTGAATTCCGGTCTCCC
DNA 2: TGGTGGCTACGACGGGATT
B3: CUUAAUC (DNA:RNA)
RNA: B1 RNA with C26U, A27U, C30U
DNA 1: CAATCTGAATTCCGGTCTCCC
DNA 2: TGGTGGCTACGACGGGATT
B4: AUCAGCU (DNA:RNA)
RNA: B1 RNA with C25A, C26U, A27C, A29G, C31U
DNA 1: CAATCTGAATTCCGGTCTCCC
DNA 2: TGGTGGCTACGACGGGATT
B5: UUAAGGA (DNA:RNA)
RNA: B1 RNA with C25U, C26U, A29G, C30G, C31A
DNA 1: CAATCTGAATTCCGGTCTCCC
DNA 2: TGGTGGCTACGACGGGATT
B6: AAUCCAC (DNA:RNA)
RNA: B1 RNA with C25A, C26A, A27U, A28C, A29C, C30A
DNA 1: CAATCTGAATTCCGGTCTCCC
DNA 2: TGGTGGCTACGACGGGATT
B7: UCGGGCU (DNA:RNA)
RNA: B1 RNA with C25U, A27G, A28G, A29G, C31U
DNA 1: CAATCTGAATTCCGGTCTCCC
DNA 2: TGGTGGCTACGACGGGATT
B8: CUAUUUG (DNA:RNA)
RNA: B1 RNA with C26U, A28U, A29U, C30U, C31G
DNA 1: CAATCTGAATTCCGGTCTCCC
DNA 2: TGGTGGCTACGACGGGATT
B9: GGUCUUU (DNA:RNA)
RNA: GGGAGACCGGAAUUCAGAUUGUCCGGUCUUUUUAAAUCCCGUCGUAGCCACCA
DNA 1: CAATCTGAATTCCGGTCTCCC
DNA 2: TGGTGGCTACGACGGGATT
B10: CGGAACC (DNA:RNA)
RNA: B1 RNA with C26G, A27G
DNA 1: CAATCTGAATTCCGGTCTCCC
DNA 2: TGGTGGCTACGACGGGATT
B11: GUGGCCU (DNA:RNA)
RNA: B9 RNA with G26U, U27G, C28G, U29C, U30C
DNA 1: CAATCTGAATTCCGGTCTCCC
DNA 2: TGGTGGCTACGACGGGATT
B12: ACCUUUG (DNA:RNA)
RNA: B9 RNA with G25A, G26C, U27C, C28U, U31G
DNA 1: CAATCTGAATTCCGGTCTCCC
DNA 2: TGGTGGCTACGACGGGATT
B13: UUUCUCC (DNA:RNA)
RNA: B9 RNA with G25U, G26U, U30C, U31C
DNA 1: CAATCTGAATTCCGGTCTCCC
DNA 2: TGGTGGCTACGACGGGATT
B14: CGAGCGU (DNA:RNA)
RNA: B1 RNA with C26G, A28G, A29C, C30G, C31U
DNA 1: CAATCTGAATTCCGGTCTCCC
DNA 2: TGGTGGCTACGACGGGATT
B15: UCCAGGC (DNA:RNA)
RNA: B1 RNA with C25U, A27C, A29G, C30G
DNA 1: CAATCTGAATTCCGGTCTCCC
DNA 2: TGGTGGCTACGACGGGATT
B16: AGCGAGG (DNA:RNA)
RNA: B1 RNA with C25A, C26G, A27C, A28G, C30G, C31G
DNA 1: CAATCTGAATTCCGGTCTCCC
DNA 2: TGGTGGCTACGACGGGATT
B17: CUGGACC (DNA:RNA)
RNA: B1 RNA with C26U, A27G, A28G
DNA 1: CAATCTGAATTCCGGTCTCCC
DNA 2: TGGTGGCTACGACGGGATT
B18: GUUGAGC (DNA:RNA)
RNA: B1 RNA with C25G, C26U, A27U, A28G, C30G
DNA 1: CAATCTGAATTCCGGTCTCCC
DNA 2: TGGTGGCTACGACGGGATT
B19: CAGGUUC (DNA:RNA)
RNA: B1 RNA with C26A, A27G, A28G, A29U, C30U
DNA 1: CAATCTGAATTCCGGTCTCCC
DNA 2: TGGTGGCTACGACGGGATT
B20: AAAGGAA (DNA:RNA)
RNA: B1 RNA with C25A, C26A, A28G, A29G, C30A, C31A
DNA 1: CAATCTGAATTCCGGTCTCCC
DNA 2: TGGTGGCTACGACGGGATT
B21: GGAAGCU (DNA:RNA)
RNA: B1 RNA with C25G, C26G, A29G, C31U
DNA 1: CAATCTGAATTCCGGTCTCCC
DNA 2: TGGTGGCTACGACGGGATT
B22: AAUUUGA (DNA:RNA)
RNA: B9 RNA with G25A, G26A, C28U, U30G, U31A
DNA 1: CAATCTGAATTCCGGTCTCCC
DNA 2: TGGTGGCTACGACGGGATT
B23: UCUAGAU (DNA:RNA)
RNA: B1 RNA with C25U, A27U, A29G, C30A, C31U
DNA 1: CAATCTGAATTCCGGTCTCCC
DNA 2: TGGTGGCTACGACGGGATT
B24: UCUCCGU (DNA:RNA)
RNA: B9 RNA with G25U, G26C, U29C, U30G
DNA 1: CAATCTGAATTCCGGTCTCCC
DNA 2: TGGTGGCTACGACGGGATT
B25: UACCGGU (DNA:RNA)
RNA: B9 RNA with G25U, G26A, U27C, U29G, U30G
DNA 1: CAATCTGAATTCCGGTCTCCC
DNA 2: TGGTGGCTACGACGGGATT
B26: CAGACAG (DNA:RNA)
RNA: B1 RNA with C26A, A27G, A29C, C30A, C31G
DNA 1: CAATCTGAATTCCGGTCTCCC
DNA 2: TGGTGGCTACGACGGGATT
B27: CGUUGGC (DNA:RNA)
RNA: B1 RNA with C26G, A27U, A28U, A29G, C30G
DNA 1: CAATCTGAATTCCGGTCTCCC
DNA 2: TGGTGGCTACGACGGGATT
B28: AAGUGUU (DNA:RNA)
RNA: B9 RNA with G25A, G26A, U27G, C28U, U29G
DNA 1: CAATCTGAATTCCGGTCTCCC
DNA 2: TGGTGGCTACGACGGGATT
B29: GGCAUUA (DNA:RNA)
RNA: B9 RNA with U27C, C28A, U31A
DNA 1: CAATCTGAATTCCGGTCTCCC
DNA 2: TGGTGGCTACGACGGGATT
B30: UCUUAGU (DNA:RNA)
RNA: B1 RNA with C25U, A27U, A28U, C30G, C31U
DNA 1: CAATCTGAATTCCGGTCTCCC
DNA 2: TGGTGGCTACGACGGGATT
B31: AGUUUUA (DNA:RNA)
RNA: B9 RNA with G25A, C28U, U31A
DNA 1: CAATCTGAATTCCGGTCTCCC
DNA 2: TGGTGGCTACGACGGGATT

What follows are binders tested against T1, RBFOX1 RRM (assay: EMSA; HiTS-Eq, 1 nM pool, 10 min; buffer printed only for the single-RNA assays: 10 mM Tris pH 7.5, 150 mM NaCl, 3.4 mM EDTA, 0.001% NP-40, 30 C). Conditions: tags: His6 N-terminal (pET28a); label: 5' 32P.
Outline: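 Purified RbFox RRM (wild type or mutant) was equilibrated for 10 min in 50 µL with 1 nM of a 5′-radiolabelled pool of RNA with 7 randomized nucleotides, its flanks annealed to DNA oligonucleotides, across increasing protein concentrations. Free RNA was separated by 8% native PAGE, excised, reverse-transcribed, PCR-barcoded and sequenced on an Illumina HiSeq 2500. Relative association constants came from read-count changes of each variant against the control reaction, normalised to the cognate motif.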

| Binder | binding signal |
| --- | --- |
| B1 | 0.00286 KA relative to UGCAUGU |
| B2 | 0.0125 KA relative to UGCAUGU |
| B3 | 0.0071 KA relative to UGCAUGU |
| B4 | 0.00315 KA relative to UGCAUGU |
| B5 | 0.000993 KA relative to UGCAUGU |
| B6 | 0.000933 KA relative to UGCAUGU |
| B7 | 0.00844 KA relative to UGCAUGU |
| B8 | 0.014 KA relative to UGCAUGU |
| B9 | 0.0123 KA relative to UGCAUGU |
| B10 | 0.0199 KA relative to UGCAUGU |
| B11 | 0.0158 KA relative to UGCAUGU |
| B12 | 0.0107 KA relative to UGCAUGU |
| B13 | 0.0126 KA relative to UGCAUGU |
| B14 | 0.0145 KA relative to UGCAUGU |
| B15 | 0.0102 KA relative to UGCAUGU |
| B16 | 0.0199 KA relative to UGCAUGU |

| Binder | binding signal |
| --- | --- |
| B17 | 0.00992 KA relative to UGCAUGU |
| B18 | 0.021 KA relative to UGCAUGU |
| B19 | 0.0143 KA relative to UGCAUGU |
| B20 | 0.00479 KA relative to UGCAUGU |
| B21 | 0.0135 KA relative to UGCAUGU |
| B22 | 0.0115 KA relative to UGCAUGU |
| B23 | 0.0067 KA relative to UGCAUGU |
| B24 | 0.0115 KA relative to UGCAUGU |
| B25 | 0.00746 KA relative to UGCAUGU |
| B26 | 0.00766 KA relative to UGCAUGU |
| B27 | 0.017 KA relative to UGCAUGU |
| B28 | 0.01 KA relative to UGCAUGU |
| B29 | 0.00291 KA relative to UGCAUGU |
| B30 | 0.0121 KA relative to UGCAUGU |
| B31 | 0.00324 KA relative to UGCAUGU |
